Data as given in PubChem BioAssay AID1347073 (National Center for Advancing Translational Sciences (NCATS), 2019).
Screen size: about 45,000 compounds; about 200 (0.44%) were called active. Inconclusive results (about 7%) are left out. Calls come from the whole dose curve; as a rule, active = well fitted activation curve with a large enough effect; inconclusive = small, poorly fitted or top-dose-only effect; inactive = no such curve, though single readings can be large or run the other way. This is one part of the list.

Assay: qHTS of TDP-43 Inhibitors: NCGC Sytravon Library Screen; note: 0% is about no effect; nearly all actives have a fitted effect of over 55% in size
Details: yeast TDP-43 toxicity rescue, BacTiter-Glo growth, 24 h; series mostly up to 46.1 µM; growth rescue (activation): at the top concentration
Procedure, shortened: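 TDP-43-expressing yeast, pregrown in raffinose, seeded at OD600 0.02 in galactose medium with compound for 24 hr at 30 deg C. Growth read by BacTiter-Glo luminescence, so rescue of toxicity appears as activation.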
In the case of `COc1ccc(NC(=O)c2ccc(Cn3cc(Cl)cn3)cc2)cc1`, the “growth rescue (activation)” value is reported as inactive: -0.264%. With `CC1=C/C(=C\c2ccc(Br)o2)C(=O)O1` the “growth rescue (activation)” value was inactive: 7%. In the case of `CCN(CC)CCC#CC(O)(c1ccccc1)C1CCCCC1` (stereo not drawn), the “growth rescue (activation)” value is reported as inactive: 3.56%. For `CC(=O)c1c(C)[nH]c(C(=O)OCC(=O)Nc2cccc(S(=O)(=O)N(C)C)c2)c1C`, the “growth rescue (activation)” value was inactive: 7.44%. With `CCC(=O)N1CCc2cc(Br)cc(S(=O)(=O)N3CCC(C(=O)NC(C)(C)C)CC3)c21` the “growth rescue (activation)” value was inactive: -7.53%. With `CC(C)CCOP(=O)(c1ccc(N(C)C)cc1)C(O)c1ccccc1` (stereo not drawn) the “growth rescue (activation)” value was inactive: -5.53%. With `C/C(CC(=O)Nc1cc(Cl)ccc1C)=N\NC(N)=O` the “growth rescue (activation)” value was inactive: 1.81%. In the case of `Cc1ccc(S(=O)(=O)N/N=c2\sc3ccccc3n2C)cc1`, the “growth rescue (activation)” value is reported as inactive: 18%. For `CCc1ccc2nc(NC(=O)CN3C(=O)NC4(CCCC4)C3=O)sc2c1`, the “growth rescue (activation)” value was inactive: -16.9%. With `Cc1ccc(CNC(=O)COC(=O)c2cnc(C)cn2)cc1` the “growth rescue (activation)” value was inactive: 8.46%. For `CCOC(=O)C1(Cc2ccc(OC)cc2)CCN(C(=O)CCn2cccn2)CC1`, the “growth rescue (activation)” value was inactive: -7.66%. For `NC(=S)n1[nH]c(-c2ccc([N+](=O)[O-])cc2)c(N=Nc2cccc(Cl)c2)c1=O`, the “growth rescue (activation)” value was inactive: 3.57%. With `CN(CC(=O)NCc1ccccn1)S(=O)(=O)c1ccc2ccccc2c1` the “growth rescue (activation)” value was inactive: 2.19%. With `COc1ccc(N(CC(=O)N2CCCCCC2)S(=O)(=O)c2ccccc2[N+](=O)[O-])c(OC)c1` the “growth rescue (activation)” value was inactive: 5.32%. With `CC(NCC(=O)Nc1ccccc1C(=O)NC1CC1)c1cccs1` (stereo not drawn) the “growth rescue (activation)” value was inactive: 3.66%. With `CCOC(=O)C1CCCN(C(=O)c2cccc3ccccc23)C1` (stereo not drawn) the “growth rescue (activation)” value was inactive: 28.7%. For `Cc1onc(-c2c(F)cccc2Cl)c1C(=O)NCCc1ccncc1`, the “growth rescue (activation)” value was inactive: -0.996%. In the case of `CCOc1ccc(NC(=O)Nc2cc(OCC(F)(F)F)cc(OCC(F)(F)F)c2)cc1`, the “growth rescue (activation)” value is reported as inactive: -8.58%. With `CC1CCCC(NC(=O)C2N(CCCN3CCCC3)C(=O)C3C(C(=O)Nc4ccc(Cl)cc4)C4C=CC32O4)C1C` (stereo not drawn) the “growth rescue (activation)” value was inactive: 18.3%. For `Cc1ccc(-c2nc(C)c(C(=O)O)s2)cc1`, the “growth rescue (activation)” value was inactive: 3.83%. For `CCCCC(=O)NC(=S)Nc1cccc(NC(=O)c2ccco2)c1`, the “growth rescue (activation)” value was inactive: 0.787%. In the case of `COc1cccc(/C=N/NC(=O)CC(C)O)c1OC/C=C/c1ccccc1` (stereo not drawn), the “growth rescue (activation)” value is reported as inactive: -5.99%. With `c1ccc(OCCNc2ccn3nc(-c4ccccc4)cc3n2)cc1` the “growth rescue (activation)” value was inactive: 12.2%. For `CC(Oc1ccc(Cl)cc1Cl)C(=O)NNC(=O)C(=O)N1CCCC1` (stereo not drawn), the “growth rescue (activation)” value was inactive: 8.02%. For `O=C(CN(C(=O)CNC(=O)c1cccs1)c1ccccc1F)NC1CCCCC1`, the “growth rescue (activation)” value was inactive: -21.6%. For `COc1cc(OC)c(OC)cc1CNC(=O)c1ccc(COc2ccccc2)cc1`, the “growth rescue (activation)” value was inactive: 14.6%. With `CN1CCN(/N=C/c2nc(-c3ccccc3)n3ccccc23)CC1` the “growth rescue (activation)” value was inactive: -11.7%. For `CN(C)c1ccc(NC(=O)c2ccc(Cn3cc([N+](=O)[O-])cn3)cc2)cc1`, the “growth rescue (activation)” value was inactive: 4.07%. For `CN(C)c1ccc(NC(=O)COC(=O)c2cc(Cl)ccc2[N+](=O)[O-])cc1`, the “growth rescue (activation)” value was inactive: 22.5%. With `C/C(=N/NC(=O)CNC(=O)Cc1ccccc1)c1ccc(Cl)cc1` the “growth rescue (activation)” value was inactive: 8.49%. With `CC(C)Oc1ccc(C(=O)NCCCNC(=O)c2ccccn2)cc1` the “growth rescue (activation)” value was inactive: -8.69%. In the case of `CCc1cc(C(=O)COc2ccc(F)cc2)c(O)cc1O`, the “growth rescue (activation)” value is reported as inactive: 16.2%. In the case of `COc1ccc(C(=O)Cn2cnc3ccccc3c2=O)cc1`, the “growth rescue (activation)” value is reported as inactive: -34.7%. With `COc1cc(NC(=O)COC(=O)CC(NC(C)=O)c2ccccc2)cc(OC)c1` (stereo not drawn) the “growth rescue (activation)” value was inactive: -5.58%. With `COCCCn1c(=N)c(C(N)=S)cc2c(=O)n3cccc(C)c3nc21` the “growth rescue (activation)” value was inactive: 24.8%. For `CC(c1ccccc1)N1C(=O)C2C3CCC(C3)C2C1=O` (stereo not drawn), the “growth rescue (activation)” value was inactive: 24.2%. In the case of `COc1cc(OC)c(OC)cc1CNc1nnnn1C`, the “growth rescue (activation)” value is reported as inactive: -1.04%. In the case of `Cc1ccc(N2CC(C(=O)NC3CC3)CC2=O)cc1` (stereo not drawn), the “growth rescue (activation)” value is reported as inactive: -0.971%. In the case of `CC(C)c1ccccc1NS(=O)(=O)c1cccs1`, the “growth rescue (activation)” value is reported as inactive: 21.6%. For `O=C(CSc1nnc(-c2ccc(O)cc2)o1)NNC(=O)c1ccncc1`, the “growth rescue (activation)” value was inactive: 5.05%. In the case of `CCOC(=O)N1CCN(C(=O)c2ccccc2NC(=O)c2ccccc2Cl)CC1`, the “growth rescue (activation)” value is reported as inactive: 9.57%. In the case of `COc1ccc(Cc2nc3ccc(C(=O)NCC4COCCO4)cc3o2)cc1` (stereo not drawn), the “growth rescue (activation)” value is reported as inactive: -20.6%. With `CC(=O)Nc1ccc(NC(=O)C(C)OC(=O)c2ccc(S(=O)(=O)N3CCCCCC3)cc2)cc1` (stereo not drawn) the “growth rescue (activation)” value was inactive: -11.7%. With `N#Cc1ccccc1NC(=O)COC(=O)c1ccc(F)cc1F` the “growth rescue (activation)” value was inactive: -1.44%. With `O=C(Nc1ccccc1N1CCOCC1)C1(c2ccc(Cl)cc2)CCC1` the “growth rescue (activation)” value was inactive: 16.2%. In the case of `O=C(/C=C/c1c(Cl)cccc1Cl)NCc1ccco1`, the “growth rescue (activation)” value is reported as inactive: -26.3%. For `Cc1ccc(-n2c(SCC(=O)N/N=C/c3c(C)nn(-c4ccccc4)c3C)nc3ccccc3c2=O)cc1`, the “growth rescue (activation)” value was inactive: 4.47%. With `Cc1cc2cc(C)c(SCC(=O)NCc3ccco3)nc2cc1C` the “growth rescue (activation)” value was inactive: 18.6%. In the case of `CCOC(=O)N1CCC(NCc2c(C(=O)N(C)Cc3ccccc3)nc3ccccn23)CC1`, the “growth rescue (activation)” value is reported as inactive: 7.45%. For `NNc1nc(Nc2ccccc2)nc(Nc2ccccc2)n1`, the “growth rescue (activation)” value was inactive: 15.6%. For `CC(=O)Nc1cccc(NC(=O)Nc2cccc(Cl)c2C)c1`, the “growth rescue (activation)” value was inactive: 8.84%. With `CCOc1ccc(CNC(=O)C2CCN(c3nnc(-n4cccc4CNc4ccc(C)cc4)s3)CC2)cc1OC` the “growth rescue (activation)” value was inactive: 5.13%. In the case of `COc1cc(/C=C2\SC(N3CCCCC3)=NC2=O)cc(OC)c1OC`, the “growth rescue (activation)” value is reported as inactive: 8.9%.
